Assay results published in PubChem BioAssay (Tox21).
Values joined by “and” are separate entries in the source; they are usually repeats but may differ in a detail not shown here. Equal values may be shown once. Inconclusive means that the source gave no clear call. Such entries were picked first, then a sample of the others. For some of these results: Potencies beside an inconclusive call are fits to weak or partial responses and may not hold up. Active and inactive are the calls of the source. Unless noted, calls come from the whole dose curve; as a rule, active = well fitted curve in the direction sought with a large enough effect in the repeat runs; inconclusive = weak or mixed curves; inactive = no such curve, though single readings can be large; an effect the other way counts as inactive or inconclusive.

Assays:
[1] = qHTS assay to identify small molecule antagonists of the peroxisome proliferator-activated receptor gamma (PPARg) signaling pathway - cell viability counter screen (AID 743194); details: PPARg-bla HEK293H viability, CellTiter-Glo luminescence, 17 h, co-treated with 50 nM rosiglitazone; activity change, negative = cytotoxicity: at 62.6 µM (top of the series) unless noted; note: potency is the fitted concentration of half-maximal effect; nearly all actives have a fitted effect of over 55% in size
Outline: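 Viability was measured as CellTiter-Glo luminescence in GeneBLAzer PPARg UAS-bla HEK293H cells. These cells had been exposed 17 h at 37 C to compounds together with rosiglitazone at 50 nM final, with the beta-lactamase readout taken in the same wells.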

[2] = qHTS assay for small molecule agonists of the antioxidant response element (ARE) signaling pathway - cell viability counter screen (AID 743203; calls by dose curve; note: potency is the fitted concentration of half-maximal effect; nearly all actives have a fitted effect of over 55% in size); details: ARE-bla HepG2 viability, CellTiter-Glo luminescence, 16 h; viability change, negative = cytotoxic: at 73.3 µM (top of the series)
Outline: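 CellSensor ARE-bla HepG2 cells, 2,000 per well, rested 5 hrs at 37C/5% CO2, then exposed to compound in DMSO for 16 hrs; viability read as CellTiter-Glo luminescence after 30 min at room temperature, in the reporter wells.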

[3] = qHTS assay for small molecule activators of the heat shock response signaling pathway - cell viability counter screen (AID 743209); details: HSE-bla HeLa viability, CellTiter-Glo luminescence, 5 h; activity change, negative = cytotoxicity: at 62.6 µM (top of the series) unless noted; note: potency is the fitted concentration of half-maximal effect; nearly all actives have a fitted effect of over 50% in size
Outline: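 CellSensor HSE-bla HeLa cells, plated overnight at 37 C/5% CO2, were exposed to compounds in DMSO for 5 h at 37 C. Viability was then read in the same wells by CellTiter-Glo luminescence after 30 min at room temperature.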

[4] = qHTS assay for small molecule activators of the heat shock response signaling pathway (AID 743210; active = well fitted activation curve with a large enough effect in the signal ratio in the repeat runs, with a control signal flat, not every such curve was filed as active; inconclusive = weak or mixed curves; the % refers to the signal ratio; note: potency is the fitted concentration of half-maximal effect); details: HeLa HSE-bla reporter, beta-lactamase ratio, 5 h; activation: at 62.6 µM (top of the series)
Outline: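 In HSE-bla HeLa cells, 5 h compound incubation (37 C) precedes addition of LiveBLAzer B/G substrate; after 2.5 h at room temperature, fluorescence intensity indicates reporter induction.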

[5] = qHTS assay to identify small molecule antagonists of the peroxisome proliferator-activated receptor delta (PPARd) signaling pathway - cell viability counter screen (AID 743213); details: PPARd-bla HEK293H viability, CellTiter-Glo luminescence, 17 h; viability change, negative = cytotoxic: at 62 µM (top of the series) unless noted; note: nearly all actives have a fitted effect of over 50% in size; note: potency is the fitted concentration of half-maximal effect
Outline: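 HEK293H cells with the PPARd UAS-bla reporter, co-treated 17 h at 37 C with compounds and L165041 (300 nM final), were lysed with CellTiter-Glo. Luminescence indicated viable cell content.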

[6] = target: Peroxisome proliferator-activated receptor delta (Homo sapiens) (UniProt Q03181); assay: qHTS assay to identify small molecule antagonists of the peroxisome proliferator-activated receptor delta (PPARd) signaling pathway (AID 743215; active = well fitted inhibition curve with a large enough effect in the signal ratio in the repeat runs, not every such curve was filed as active; inconclusive = weak or mixed curves, or effect the other way; inactive = no such curve, though single readings can be large or run the other way; the % refers to the signal ratio;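 note: cells stimulated with agonist L165041 at 300 nM final during compound exposure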; note: potency is the fitted concentration of half-maximal effect; for ratio activity, negative = inhibition: % is set by controls: 0 for no effect and ±100 for the full control effect); details: HEK293H PPARd-UAS-bla, beta-lactamase FRET ratio, antagonist, 17 h
Outline: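 PPARd UAS-bla HEK293H cells were pre-incubated 5 h at 37 C, then given test compounds in DMSO plus agonist L165041 (300 nM final). After 17 h at 37 C, beta-lactamase FRET substrate was added; fluorescence read after 2 h at room temperature.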

[7] = target: Bile acid receptor (Homo sapiens) (UniProt Q96RI1); assay: qHTS assay to identify small molecule antagonists of the farnesoid-X-receptor (FXR) signaling pathway (AID 743217; active = well fitted inhibition curve with a large enough effect in the signal ratio in the repeat runs, not every such curve was filed as active; inconclusive = weak or mixed curves, or effect the other way; inactive = no such curve, though single readings can be large or run the other way; the % refers to the signal ratio; note: potency is the fitted concentration of half-maximal effect; for activity change, negative = inhibition: % is set by controls: 0 for no effect and ±100 for the full control effect); details: HEK293T FXR-UAS-bla, beta-lactamase ratio, CDCA-stimulated, 16 h; activity change, negative = inhibition: at 62.6 µM (top of the series) unless noted
Outline: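 FXR-UAS-bla HEK 293T cells pre-incubated 5 h at 37 °C, then exposed to compounds with chenodeoxycholic acid (50 uM final) for 16 h at 37 °C. Beta-lactamase reporter read by LiveBLAzer B/G FRET substrate fluorescence after 2 h at room temperature.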

[8] = qHTS assay to identify small molecule agonists of the farnesoid-X-receptor (FXR) signaling pathway - cell viability counter screen (AID 743218); details: FXR-bla HEK293T viability, CellTiter-Glo luminescence, 16 h; viability change, negative = cytotoxic: at 62.6 µM (top of the series) unless noted; note: potency is the fitted concentration of half-maximal effect; nearly all actives have a fitted effect of over 45% in size
Outline: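 FXR-UAS-bla HEK 293T cells, plated 5 h at 37 C, were exposed to compounds for 16 h at 37 C. CellTiter-Glo was then added to the same wells as the bla readout; luminescence read after 30 min at room temperature.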

[9] = target: Vitamin D3 receptor (Homo sapiens) (UniProt P11473); assay: qHTS assay to identify small molecule antagonists of the vitamin D receptor (VDR) signaling pathway (AID 743223; active = well fitted inhibition curve with a large enough effect in the signal ratio in the repeat runs, not every such curve was filed as active; inconclusive = weak or mixed curves, or effect the other way; inactive = no such curve, though single readings can be large or run the other way; the % refers to the signal ratio; note: potency is the fitted concentration of half-maximal effect); details: VDR-UAS-bla HEK293T, beta-lactamase FRET ratio, 16 h
Outline: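 Antagonist mode: compound added to VDR-bla cells alongside agonist 1alpha,25-dihydroxyvitamin D3 (3 nM final), incubation 16 h at 37C. Read-out is LiveBLAzer FRET fluorescence, 2 h at room temperature.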

[10] = qHTS assay to identify small molecule antagonists of the vitamin D receptor (VDR) signaling pathway - cell viability counter screen (AID 743225); details: VDR-bla HEK293T viability, CellTiter-Glo luminescence, 16 h; viability change, negative = cytotoxic: at 61 µM (top of the series) unless noted; note: nearly all actives have a fitted effect of over 50% in size; note: potency is the fitted concentration of half-maximal effect
Outline: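 Cytotoxicity counter screen read by CellTiter-Glo luminescence (30 min, room temperature) in the same wells as the VDR-bla antagonist readout. HEK 293T VDR-UAS-bla cells had 16 h at 37C with compound and 3 nM (final) 1-alpha,25-dihydroxyvitamin D3, then 2 h with FRET substrate.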

[11] = qHTS assay to identify small molecule agonists of the peroxisome proliferator-activated receptor delta (PPARd) signaling pathway - cell viability counter screen (AID 743211); details: PPARd-bla HEK293H viability, CellTiter-Glo luminescence, 17 h; activity change, negative = cytotoxicity: at 62.6 µM (top of the series); note: potency is the fitted concentration of half-maximal effect; nearly all actives have a fitted effect of over 55% in size
Outline: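 Viability was measured as CellTiter-Glo luminescence (30 min, room temperature) in the same wells as the beta-lactamase readout. GeneBLAzer PPARd UAS-bla HEK293H cells received compound after 5 h plating and were incubated 17 h at 37 C.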

[12] = qHTS assay to identify small molecule antagonists of the farnesoid-X-receptor (FXR) signaling pathway - cell viability counter screen (AID 743221; active = well fitted cell-killing curve with a large enough effect in the repeat runs, not every such curve was filed as active; inconclusive = weak or mixed curves, or effect the other way; inactive = no such curve, though single readings can be large or run the other way; note: potency is the fitted concentration of half-maximal effect; nearly all actives have a fitted effect of over 50% in size); details: FXR-bla HEK293T viability, CellTiter-Glo luminescence, 16 h; activity change, negative = cytotoxicity: at 62.6 µM (top of the series)
Outline: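 Cytotoxicity counter screen run in the FXR-bla reporter wells: HEK 293T cells exposed to compound with 50 uM (final) chenodeoxycholic acid for 16 h, 37 C, then viability measured by CellTiter-Glo luminescence after 30 min, room temperature.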

[13] = target: Vitamin D3 receptor (Homo sapiens) (UniProt P11473); assay: qHTS assay to identify small molecule agonists of the vitamin D receptor (VDR) signaling pathway (AID 743222; calls by dose curve; note: potency is the fitted concentration of half-maximal effect; for activation: % is set by controls: 0 for no effect and ±100 for the full control effect); details: HEK293T VDR-UAS-bla, beta-lactamase FRET ratio, 16 h; activation: at 63.5 µM (top of the series) unless noted
Outline: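 VDR-bla cells were plated 4 h at 37C/5% CO2, then exposed to compounds in DMSO for 16 h. After LiveBLAzer B/G FRET substrate addition and 2 h at room temperature, beta-lactamase reporter fluorescence was read.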

[14] = target: Peroxisome proliferator-activated receptor gamma (Homo sapiens) (UniProt P37231); assay: qHTS assay to identify small molecule antagonists of the peroxisome proliferator-activated receptor gamma (PPARg) signaling pathway (AID 743191; calls by dose curve; note: % is set by controls: 0 for no effect and ±100 for the full control effect; nearly all actives have a fitted effect of over 30% in size); details: HEK293H PPARg-UAS-bla, beta-lactamase ratio, antagonist, 17 h; ratio activity, negative = inhibition: at 62.6 µM (top of the series) unless noted
Outline: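 Beta-lactamase reporter under UAS control in HEK293H PPARg-bla cells; compound treatment 17 h at 37C. Read-out: fluorescence intensity after 1 h room-temperature incubation with LiveBLAzer B/G FRET substrate.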

[15] = qHTS assay for small molecule agonists of the antioxidant response element (ARE) signaling pathway (AID 743202; active = well fitted activation curve with a large enough effect in the signal ratio in the repeat runs, not every such curve was filed as active; inconclusive = weak or mixed curves, or effect the other way; inactive = no such curve, though single readings can be large or run the other way; the % refers to the signal ratio; note: potency is the fitted concentration of half-maximal effect); details: HepG2 ARE-bla reporter, beta-lactamase FRET, 16 h; activation: at 73.3 µM (top of the series) unless noted
Outline: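 An ARE-responsive beta-lactamase gene stably integrated in HepG2 cells serves as reporter. After 5 h plating and 16 h compound incubation at 37 C, fluorescence of the B/G FRET substrate was measured.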

[16] = target: Bile acid receptor (Homo sapiens) (UniProt Q96RI1); assay: qHTS assay to identify small molecule agonists of the farnesoid-X-receptor (FXR) signaling pathway (AID 743220; active = well fitted activation curve with a large enough effect in the signal ratio in the repeat runs, not every such curve was filed as active; inconclusive = weak or mixed curves, or effect the other way; the % refers to the signal ratio; note: % is set by controls: 0 for no effect and ±100 for the full control effect); details: HEK293T FXR-UAS-bla, beta-lactamase FRET ratio, 16 h; activation: at 62.6 µM (top of the series) unless noted
Outline: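 Beta-lactamase reporter under UAS control in GeneBLAzer FXR HEK 293T cells (5000/well) measured with LiveBLAzer FRET substrate after 2 h at room temperature. Compound exposure lasted 16 h at 37C.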

[17] = qHTS assay to identify small molecule agonists of the vitamin D receptor (VDR) signaling pathway - cell viability counter screen (AID 743224); details: VDR-bla HEK293T viability, CellTiter-Glo luminescence, 16 h; activity change, negative = cytotoxicity: at 62.6 µM (top of the series) unless noted
Outline: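 VDR-bla cells were preincubated 4 h at 37C/5% CO2, then exposed to compounds for 16 h. After the 2 h room-temperature bla FRET read, CellTiter-Glo was added to the same wells and luminescence read after 30 min.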

[18] = ratio activity, negative = inhibition: at 62 µM (top of the series) unless noted
[19] = activity change, negative = inhibition: at 61 µM (top of the series) unless noted
Tags give direction and shape of the fitted curve or compound fluorescence and quenching.

Sequence of UniProt P37231 (P37231 whole entry, looked up): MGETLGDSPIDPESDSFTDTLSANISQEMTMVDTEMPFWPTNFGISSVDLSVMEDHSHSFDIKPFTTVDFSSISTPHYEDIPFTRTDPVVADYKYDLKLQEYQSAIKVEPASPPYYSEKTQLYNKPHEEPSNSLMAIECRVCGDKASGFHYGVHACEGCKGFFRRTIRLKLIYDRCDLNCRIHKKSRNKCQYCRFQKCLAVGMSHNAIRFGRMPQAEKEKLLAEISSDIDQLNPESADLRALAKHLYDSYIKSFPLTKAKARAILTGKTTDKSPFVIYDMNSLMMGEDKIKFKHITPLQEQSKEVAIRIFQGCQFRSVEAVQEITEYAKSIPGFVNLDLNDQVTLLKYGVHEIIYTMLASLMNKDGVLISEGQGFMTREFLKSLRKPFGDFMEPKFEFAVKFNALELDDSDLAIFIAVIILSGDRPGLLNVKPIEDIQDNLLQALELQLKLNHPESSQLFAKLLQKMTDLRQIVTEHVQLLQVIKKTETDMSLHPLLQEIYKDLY
Sequence of UniProt Q96RI1 (Q96RI1 whole entry, looked up): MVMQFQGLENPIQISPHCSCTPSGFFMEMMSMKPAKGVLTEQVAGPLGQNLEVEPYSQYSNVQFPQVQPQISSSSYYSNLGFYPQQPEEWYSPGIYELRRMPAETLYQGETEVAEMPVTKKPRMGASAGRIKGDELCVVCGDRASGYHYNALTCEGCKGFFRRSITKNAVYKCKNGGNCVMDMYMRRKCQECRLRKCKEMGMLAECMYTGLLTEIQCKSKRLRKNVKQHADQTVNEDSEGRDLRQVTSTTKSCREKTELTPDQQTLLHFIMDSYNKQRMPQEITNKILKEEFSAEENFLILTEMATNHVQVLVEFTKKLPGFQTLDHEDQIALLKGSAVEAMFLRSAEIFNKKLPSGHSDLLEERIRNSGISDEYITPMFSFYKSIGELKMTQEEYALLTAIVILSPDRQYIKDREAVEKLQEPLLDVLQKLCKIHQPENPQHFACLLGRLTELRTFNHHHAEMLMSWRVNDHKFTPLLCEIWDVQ
Sequence of UniProt P11473 (P11473 whole entry, looked up): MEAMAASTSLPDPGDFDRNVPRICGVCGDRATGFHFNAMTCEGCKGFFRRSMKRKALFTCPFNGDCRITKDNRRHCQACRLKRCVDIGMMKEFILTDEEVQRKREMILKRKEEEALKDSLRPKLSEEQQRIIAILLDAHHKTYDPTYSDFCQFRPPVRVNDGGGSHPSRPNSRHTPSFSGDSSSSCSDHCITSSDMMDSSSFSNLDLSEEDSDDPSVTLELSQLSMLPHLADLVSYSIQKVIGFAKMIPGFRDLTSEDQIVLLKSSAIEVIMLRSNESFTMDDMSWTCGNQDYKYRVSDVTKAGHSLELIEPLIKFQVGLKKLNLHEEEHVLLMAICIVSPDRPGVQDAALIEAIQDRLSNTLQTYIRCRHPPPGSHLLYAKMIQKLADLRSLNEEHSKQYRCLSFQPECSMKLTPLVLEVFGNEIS
Sequence of UniProt Q03181 (Q03181 whole entry, looked up): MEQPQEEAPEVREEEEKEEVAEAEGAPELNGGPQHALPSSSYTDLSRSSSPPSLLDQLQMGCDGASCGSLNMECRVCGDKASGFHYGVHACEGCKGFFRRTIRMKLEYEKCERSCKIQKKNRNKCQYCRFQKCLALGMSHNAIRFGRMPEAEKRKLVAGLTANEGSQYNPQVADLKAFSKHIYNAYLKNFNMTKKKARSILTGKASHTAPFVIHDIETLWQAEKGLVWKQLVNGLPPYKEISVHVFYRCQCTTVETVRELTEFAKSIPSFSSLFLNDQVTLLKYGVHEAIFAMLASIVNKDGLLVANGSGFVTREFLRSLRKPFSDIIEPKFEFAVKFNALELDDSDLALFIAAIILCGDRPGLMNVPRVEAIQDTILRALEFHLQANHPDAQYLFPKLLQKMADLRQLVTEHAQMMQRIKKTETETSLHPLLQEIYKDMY

O=C1c2ccccc2C(=O)N1SC1CCCCC1
Potency [1]: active: 54.9 µM and inconclusive: 54.9 µM [cytotoxic, partial curve, poor fit]
Potency [2]: active: 48.5 µM and active: 34.4 µM
Potency [3]: inconclusive: 54.9 µM [cytotoxic, partial curve, poor fit] and active: 54.9 µM
Potency [4]: inconclusive: 57 µM and inconclusive: 49 µM
Potency [5]: inconclusive: 61.6 µM [cytotoxic, single point] and inconclusive: 54.9 µM [cytotoxic]
Potency [6, 18]: inconclusive: 13.8 µM [rising, full curve]
ratio activity, negative = inhibition [6, 18]: inconclusive: -65.6%
Potency [7]: inconclusive: 48.9 µM [rising, partial curve, poor fit]
activity change, negative = inhibition [7]: inconclusive: -30.8%
Potency [8]: inconclusive: 61600 nM [cytotoxic, single point]
Potency [9, 19]: inconclusive: 195 nM [inhibitor, full curve, poor fit] and inconclusive: 54.9 µM
Potency [10]: active: 48.9 µM and inconclusive: 61.6 µM [cytotoxic, single point]

CCCCc1oc2ccccc2c1C(=O)c1cc(I)c(OCCN(CC)CC)c(I)c1
Potency [1]: active: 13.9 µM and inconclusive: 2.11 µM [cytotoxic, partial curve, poor fit]
Potency [3]: inconclusive: 27.8 µM [cytotoxic, partial curve]
Potency [4]: inconclusive: 39.2 µM and inconclusive: 25.1 µM
Potency [11]: active: 22.1 µM and active: 16.8 µM
Potency [5]: active: 15.6 µM and active: 23.7 µM
Potency [6, 18]: inconclusive: 34.9 µM
Potency [7]: inconclusive: 39.2 µM [inhibitor] and inconclusive: 29.8 µM
Potency [8]: active: 34.9 µM and active: 18.8 µM
Potency [12]: active: 34.9 µM and active: 29.8 µM
Potency [13]: inconclusive: 15.6 µM
activation [13]: inconclusive: -28%
Potency [9, 19]: inconclusive: 44 µM [single point]

CCCSS/C(CCO)=C(\C)N(C=O)Cc1cnc(C)nc1N
ratio activity, negative = inhibition [14]: inconclusive: 8.71%
Potency [4]: inconclusive: 15 µM [rising, partial curve]
activity change, negative = inhibition [9, 19]: inconclusive: -33.7%
Potency [10]: inactive

CCCCCCCCCCCCCCNCCO
Potency [1]: inconclusive: 33500 nM [cytotoxic, single point]
Potency [15]: inconclusive: 33.5 µM
Potency [5]: inconclusive: 13.3 µM [cytotoxic, single point]

Brc1ccccc1-c1ccccc1
Potency [1]: inconclusive: 292 nM [rising, partial curve]
Potency [2]: inconclusive: 36.5 µM [cytotoxic, partial curve]
Potency [3]: inconclusive: 36.8 µM [cytotoxic, partial curve, poor fit]
Potency [4]: inconclusive: 20.7 µM
Potency [11]: inconclusive: 25.8 µM [cytotoxic, partial curve, poor fit]
Potency [5]: inconclusive: 0.164 µM [cytotoxic, full curve, poor fit]
Potency [6, 18]: inconclusive: 64.9 µM [activator]
Potency [8]: inconclusive: 21.9 nM [rising, full curve, poor fit]
Potency [9, 19]: inconclusive: 20.7 µM [fluorescent]
Potency [10]: inconclusive: 3.3 nM [cytotoxic, full curve, poor fit]

CSCCC=O
ratio activity, negative = inhibition [14]: inconclusive: 2.03%
ratio activity, negative = inhibition ([6]; at 80.4 µM (top of the series)): inactive: -10%
ratio activity, negative = inhibition [6, 18]: inconclusive: -33.2%
activation [16]: inconclusive: -1.78%
activity change, negative = inhibition [9, 19]: inconclusive: 3.51%

c1ccc2c(c1)CCc1ccccc1N2
ratio activity, negative = inhibition [14]: inconclusive: 4.55%
Potency [11]: inconclusive: 33.5 µM [cytotoxic, partial curve, poor fit]
Potency [5]: inactive
activity change, negative = inhibition ([9]; at 61 µM (top of the series)): inconclusive: -30.8% [inhibitor]
activity change, negative = inhibition ([9]; at 78.8 µM (top of the series)): inconclusive: -34%
Potency [10]: inconclusive: 62000 nM [cytotoxic, single point]

c1ccc2cc3ccccc3cc2c1
Potency [1]: inconclusive: 567 nM [rising, partial curve, poor fit]
Potency [15]: inactive
Potency [2]: inconclusive: 19.3 µM [cytotoxic, partial curve, poor fit]
Potency [5]: inactive
ratio activity, negative = inhibition [6, 18]: inconclusive: 6.13%
Potency [8]: inconclusive: 80.1 nM [rising, full curve]
Potency [16]: inactive
activity change, negative = inhibition [9, 19]: inconclusive: 7.02%
Potency [17]: inactive
